Measured values: PubChem BioAssay AID504332 (National Center for Advancing Translational Sciences (NCATS), 2011)
Out of some 350,000 compounds screened, about 31,000 (8.9%) were called active. This list was built around the results that the source calls inconclusive (neither active nor inactive); the mix of calls is not that of the screen. Calls come from the whole dose curve; as a rule, active = well fitted inhibition curve with a large enough effect; inconclusive = small, poorly fitted or top-dose-only effect; inactive = no such curve, though single readings can be large or run the other way. Potencies beside an inconclusive call are fits to weak or partial responses and may not hold up.

target: Histone-lysine N-methyltransferase EHMT2 (Homo sapiens) (UniProt Q96KQ7); experiment: qHTS Assay for Inhibitors of Histone Lysine Methyltransferase G9a; details: G9a H3K9 monomethylation, AlphaScreen, 2 h; activity, negative = inhibition: at 59 µM (top of the series) unless noted; note: nearly all actives have a fitted effect of over 75% in size
Outline: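 Signal arises when biotinylated H3K9 peptide, once monomethylated, bridges streptavidin donor and antibody-captured acceptor beads. Enzyme at 20 nM was preincubated 15 min with test compounds; peptide 500 nM and SAM 20 uM then reacted for 2 h.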
% is set by controls: 0 for no effect and ±100 for the full control effect; potency is the fitted concentration of half-maximal effect; tags give direction and shape of the fitted curve.

UniProt Q96KQ7, sequence (Q96KQ7 whole entry, looked up): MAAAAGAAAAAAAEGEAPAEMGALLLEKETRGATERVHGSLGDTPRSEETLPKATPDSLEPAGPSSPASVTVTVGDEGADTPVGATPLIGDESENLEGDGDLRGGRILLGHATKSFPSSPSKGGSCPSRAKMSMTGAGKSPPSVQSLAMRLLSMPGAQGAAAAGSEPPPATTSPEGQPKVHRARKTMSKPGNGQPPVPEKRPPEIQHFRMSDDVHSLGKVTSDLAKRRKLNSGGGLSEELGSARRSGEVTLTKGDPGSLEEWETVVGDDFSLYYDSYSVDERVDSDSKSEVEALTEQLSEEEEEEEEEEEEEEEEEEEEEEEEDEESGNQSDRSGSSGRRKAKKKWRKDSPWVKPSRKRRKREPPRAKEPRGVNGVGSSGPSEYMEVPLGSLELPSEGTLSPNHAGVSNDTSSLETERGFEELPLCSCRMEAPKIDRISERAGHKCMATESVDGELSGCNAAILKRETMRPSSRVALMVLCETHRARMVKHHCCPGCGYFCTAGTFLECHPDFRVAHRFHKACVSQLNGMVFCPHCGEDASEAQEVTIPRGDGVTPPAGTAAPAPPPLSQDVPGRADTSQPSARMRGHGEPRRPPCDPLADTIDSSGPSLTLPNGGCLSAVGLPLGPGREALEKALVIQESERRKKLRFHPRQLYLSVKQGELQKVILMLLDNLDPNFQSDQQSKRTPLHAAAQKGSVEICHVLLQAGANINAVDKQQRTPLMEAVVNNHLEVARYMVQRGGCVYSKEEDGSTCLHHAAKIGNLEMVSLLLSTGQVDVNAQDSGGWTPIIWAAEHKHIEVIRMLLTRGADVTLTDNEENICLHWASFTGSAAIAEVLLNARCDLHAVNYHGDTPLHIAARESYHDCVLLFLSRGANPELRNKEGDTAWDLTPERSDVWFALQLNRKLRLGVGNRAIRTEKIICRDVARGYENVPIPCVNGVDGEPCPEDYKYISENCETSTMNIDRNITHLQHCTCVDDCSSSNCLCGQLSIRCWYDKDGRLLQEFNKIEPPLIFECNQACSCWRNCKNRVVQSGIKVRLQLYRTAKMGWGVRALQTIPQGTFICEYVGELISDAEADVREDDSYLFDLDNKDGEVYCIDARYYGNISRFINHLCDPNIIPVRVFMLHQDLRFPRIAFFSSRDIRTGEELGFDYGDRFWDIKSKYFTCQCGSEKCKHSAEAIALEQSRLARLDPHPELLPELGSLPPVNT

SMILES	Potency	activity, negative = inhibition
CC1CCCN(C(=O)c2ccc(CNc3c(N4CCCCC4)c(=O)c3=O)cc2)C1 (configuration not stated)	inconclusive: 89.1 µM [inhibitor, single point]	
C=CCOC(=O)C1=C(C)NC(SC)=C(C#N)C1c1ccc(OCC)cc1 (configuration not stated)		inactive: -20.7% [at 102 µM]
COc1ccc(Cl)cc1S(=O)(=O)n1ccnc1C(C)C	active: 50.1 µM	
Cc1cccc(N2CCN(C(=O)c3cc4ccc5cccnc5c4[nH]3)CC2)c1C	inconclusive: 6.31 µM [inhibitor, partial curve, poor fit]	
CCOc1ccc2nc(NC(=O)c3cc([N+](=O)[O-])ccc3N3CCOCC3)sc2c1	inconclusive: 31.6 µM [inhibitor, single point]	
Cc1occc1C(=O)Nc1nnc(-c2ccncc2)s1		inactive: -37.1% [at 12.7 µM]
C=CCNS(=O)(=O)c1ccc2nsnc2c1	inconclusive: 31.6 µM [inhibitor, single point]	
Cc1ccc(S(=O)(=O)N2CCCCC2CCNC(=O)C(=O)NCC2CCCO2)cc1 (configuration not stated)		inactive: -6.89% [at 102 µM]
O=[N+]([O-])c1c(NCCCO)cc(Sc2ccc(Cl)cc2)c2nonc12	inconclusive: 100 µM [inhibitor, single point]	
O=C(CN1CCc2ccccc21)NC(=O)NCc1ccco1		inconclusive: -68.3% [inhibitor]
Oc1sc(C=Nc2ccc(F)cc2)c2ccccc12	inconclusive: 10 µM [inhibitor, partial curve, poor fit]	
CC(C)CC(=O)Nc1ccc(OCC(=O)O)cc1	inconclusive: 89.1 µM [inhibitor, single point]	
CN1CCN(C(c2ccc(Cl)cc2)c2cc(Cl)c3cccnc3c2O)CC1 (configuration not stated)	active: 2.51 µM	
N#CC(=C1CCCC1)c1nc(-c2cc3ccccc3oc2=O)cs1	inconclusive: 56.2 µM [inhibitor, partial curve, poor fit]	
Cc1ccccc1-n1c(-c2csc3ccccc23)n[nH]c1=S	active: 2 µM	
CCCNC(=O)c1nnsc1S(=O)(=O)c1ccc(Cl)cc1	active: 12.6 µM	
Cn1c(SCc2cccc([N+](=O)[O-])c2)nc2c(c1=O)SCC2	inconclusive: 35.5 µM [inhibitor, full curve, poor fit]	
CSc1ccccc1C(=O)N1CCCCC1		inactive: -20.5% [at 102 µM]
Cc1cccc(C(=O)OCC(=O)NCc2ccco2)c1		inactive: -6.84%
Cc1cccc(CN(C(=S)Nc2c(C)cccc2C)c2cccnc2)c1	inconclusive: 2 µM [inhibitor, full curve, poor fit]	
CCn1nc(C(=O)NNC(=O)c2ccccc2)c2ccccc2c1=O		inactive: 2.87% [at 2.33 µM]
O=c1cc2c(n[nH]1)CCCC2	inconclusive: 50.1 µM [inhibitor, partial curve]	
CC(=O)Nc1cccc(NC(=O)CS(=O)(=O)c2cn(CC(=O)N3CCCC3)c3ccccc23)c1	inconclusive: 79.4 µM [inhibitor, partial curve, poor fit]	

SMILES	Potency	activity, negative = inhibition
Cn1ccnc1SCc1cn2cc(Br)ccc2n1	inconclusive: 25.1 µM [inhibitor, single point]	
CCC(C)[C@@H](C(=O)Nc1ccc2c(c1)OCO2)N1Cc2ccccc2C1=O (some centres not stated)	inconclusive: 79.4 µM [inhibitor, single point]	
COc1ccc(C(c2nnnn2C2CCCCC2)N2CCN(c3ccc(OC)cc3)CC2)cc1 (configuration not stated)	inconclusive: 2.51 µM [inhibitor, partial curve, poor fit]	
O=c1c2ccccc2nc(SCc2ccccc2)n1CC1CCCO1 (configuration not stated)		inactive: -11.6% [at 12.7 µM]
Cc1ccc2cc(CCNC(=O)c3ccco3)c(=O)[nH]c2c1C	active: 79.4 µM	
Cc1cc(Br)ccc1SCC(=O)OCC(=O)Nc1ccc2[nH]c(=O)[nH]c2c1	inconclusive: 3.16 µM [inhibitor, partial curve, poor fit]	
Cc1cc(C)c2c(NC(=S)Nc3ccccc3)n[nH]c2n1	inconclusive: 31.6 µM [inhibitor, partial curve]	
CCOC(=O)N1CCN(Cc2nc3cc(NC(=O)CC(C)C)ccc3n2C(C)C)CC1		inactive: -1.49%
CC(C)CC1NC(=O)C(CCCN)NC(=O)C(C(C)C)NC(=O)C2CCCN2C(=O)C(Cc2ccccc2)NC(=O)C(CC(C)C)NC(=O)C(CCCN)NC(=O)C(C(C)C)NC(=O)C2CCCN2C(=O)C(Cc2ccccc2)NC1=O (configuration not stated)		inactive: -41.8% [at 2.33 µM]
CCOC(=O)NC(N(O)c1cccc(Cl)c1)C(Cl)(Cl)Cl (configuration not stated)	active: 39.8 µM	
CCCNCCC(c1ccco1)c1ccccc1OC (configuration not stated)		inactive: -1.49% [at 0.501 µM]
CC(Sc1nc2cc(Cl)ccc2s1)C(=O)Nc1ccc2c(c1)OCO2 (configuration not stated)	inconclusive: 20 µM [inhibitor, single point]	
COc1cc(/C=N/O)ccc1Oc1ccc([N+](=O)[O-])cc1[N+](=O)[O-]	inconclusive: 79.4 µM [inhibitor, partial curve, poor fit]	
CSC1=NC(C(Cl)(Cl)Cl)N=C(c2ccc(C)cc2)N1 (configuration not stated)	active: 14.1 µM	
O=C(Nc1nc2ccccc2c(=O)[nH]1)c1ccccc1SCc1ccccc1	inconclusive: 79.4 µM [inhibitor, single point]	
O=C(NCc1cn(-c2ccccc2)nc1-c1ccccc1)c1cccc([N+](=O)[O-])c1	inconclusive: 22.4 µM [inhibitor, single point]	
O=C(NCCCn1ccnc1)c1ccc(C(F)(F)F)cc1		inactive: 17.3% [at 102 µM]
CCn1cc(C(=O)O)c(=O)c2cnc(N3CCN(C(=S)NC(=O)c4ccc(F)c(F)c4)CC3)nc21	inconclusive: 70.8 µM [inhibitor, partial curve, poor fit]	
O=C(CNC(=O)c1ccccc1Cl)OC1CCOC1=O (configuration not stated)	inconclusive: 50.1 µM [inhibitor, partial curve, poor fit]	
Cc1ccc(NC(=O)CCN2C(=O)c3ccccc3Sc3ncccc32)cc1	inconclusive: 31.6 µM [inhibitor, partial curve, poor fit]	
COc1ccccc1CCNC(=O)c1cc(-c2ccncc2)nc2ccc(Br)cc12	inconclusive: 44.7 µM [inhibitor, partial curve]	
COc1ccc(S(=O)(=O)N(C)c2ccc(C(=O)Nc3cccnc3)cc2)cc1OC	inconclusive: 11.2 µM [inhibitor, partial curve, poor fit]	
Cc1ccc(CS(=O)(=O)CCC(=O)NCC2CCCO2)cc1 (configuration not stated)		inactive: -1.98% [at 12.7 µM]

SMILES	Potency	activity, negative = inhibition
FC(F)(F)c1cccc(NCc2n[nH]c(=S)n2C2CCCCC2)c1	active: 28.2 µM	
O=C(C(NS(=O)(=O)c1cccc2nsnc12)c1ccccc1)N1CCN(c2ccccc2)CC1 (configuration not stated)	inconclusive: 39.8 µM [inhibitor, single point]	
COc1cc(OC)c(NC(=O)C(CC(C)C)N2Cc3ccccc3C2=O)cc1Cl (configuration not stated)	inconclusive: 39.8 µM [inhibitor, partial curve, poor fit]	
CN(C)c1cccc(C(=O)Nc2ccc(N3CCOCC3)cc2)c1	inconclusive: 6.31 µM [inhibitor, single point]	
CCCC1=C(C(=O)OCC)C(c2ccc(F)cc2)n2ncnc2N1 (configuration not stated)	inconclusive: 89.1 µM [inhibitor, single point]	
O=C(C[n+]1ccccc1)N/N=C/c1ccc(Cl)c(Cl)c1		inactive: -6.68% [at 102 µM]
CCC(=O)N1CCN(c2ccc(NC(=S)NC(=O)COc3ccccc3)cc2)CC1	inconclusive: 50.1 µM [inhibitor, partial curve]	
COc1cccc(NC(=O)CN(C)C(=O)Cc2ccc3c(c2)CCC3)c1	inconclusive: 12.6 µM [inhibitor, single point]	
Cc1csc(NC(=O)C2CCCN(S(=O)(=O)c3ccc(Br)s3)C2)n1 (configuration not stated)	inconclusive: 89.1 µM [inhibitor, single point]	
CC1(C(=O)OCC(=O)Nc2ccc3ccccc3c2)CC1(Cl)Cl (configuration not stated)		inactive: 26.2% [at 102 µM]
CCC(=O)Nc1ccc(NC(=O)c2ccccn2)cn1	inconclusive: 28.2 µM [inhibitor, single point]	
COc1ccc(CCNC(=O)c2ccc3[nH]c(C)c(C)c3c2)cc1OC	inconclusive: 22.4 µM [inhibitor, partial curve, poor fit]	
CC1(C(=O)NC2CCCCCCC2)CCC(=O)N1Cc1ccco1 (configuration not stated)	inconclusive: 89.1 µM [inhibitor, partial curve, poor fit]	
CCCN1CCc2c(sc(NC(=S)NC(=O)c3ccccc3)c2C#N)C1	active: 10 µM	
CCCCN(CC)CCNC(=O)CN1C(=O)COc2ccc(S(=O)(=O)N3CCOCC3)cc21		inactive: 10.8%
COc1ccc(-c2nnc(SCC(=O)N3CCN(c4ccccc4)CC3)o2)cc1OC	inconclusive: 89.1 µM [inhibitor, single point]	
Nc1ccc(S(=O)(=O)NNC(=O)C(=O)NNc2ccccc2)cc1	active: 1.78 µM	
C#CCOCCOCCOCCNc1nc(N2CCN(C(=O)[C@H](CCCCN)n3cc([C@@H](N)C(C)CC)nn3)CC2)nc(N2CCN(C(=O)[C@H](Cc3cc4ccccc4[nH]3)n3cc([C@@H](N)CC(C)C)nn3)CC2)n1 (some centres not stated)		inconclusive: -98.5% [inhibitor]
O=[N+]([O-])c1ccc(N/N=C2/CCCCC2c2ccccn2)c([N+](=O)[O-])c1 (configuration not stated)	active: 10 µM	
Cc1ccccc1OCC(=O)Nc1ccc(S(=O)(=O)Nc2ccccn2)cc1	inconclusive: 89.1 µM [inhibitor, single point]	
CCCSCCCNC(=O)c1ccccc1NC(=O)C1=CSCCO1	inconclusive: 89.1 µM [inhibitor, single point]	
